Measured values taken from patent publication US5939527A, “Tetrapeptides as antitumor agents” (BASF Aktiengesellschaft, priority 1996, dated 1999).
At least one peptide structure holds a part that was inferred or is arguable (an end, a ring closure or a residue).

system: HT-29 colon carcinoma cells; assay type: cell-based; conditions: HT-29 cells, 48 hours incubation, MTT; read-out: IC50 (concentration giving a T/C of 50% growth inhibition)

Compound | IC50
CCC(C(=O)N[C@H](C(=O)N(C)[C@@H](C(C)C)[C@@H](CC(=O)N1CCC[C@H]1C(=O)OC)OC)C(C)C)(c1ccccc1)N(C)C (stereo partly drawn) [Compound 29] | 9 nM
CO[C@H](CC(=O)N1CCC[C@H]1C(=O)N[C@H](C)C(=O)Nc1nccs1)[C@H](C(C)C)N(C)C(=O)[C@@H](NC(=O)[C@H](C(C)C)N(C)C)C(C)C [Compound 44] | 500 nM
COC(=O)CC(O)[C@@H]1CCCN1C(=O)C[C@@H](OC)[C@H](C(C)C)N(C)C(=O)[C@@H](NC(=O)[C@H](C(C)C)N(C)C)C(C)C (stereo partly drawn) [Compound 38] | 30 nM
COC(=O)/C=C\[C@@H]1CCCN1C(=O)C[C@@H](OC)[C@H](C(C)C)N(C)C(=O)[C@@H](NC(=O)[C@H](C(C)C)N(C)C)C(C)C [Compound 39] | 200 nM
CO[C@H](CC(=O)N1CCC[C@H]1C(=O)NCCc1ccccn1)[C@H](C(C)C)N(C)C(=O)[C@@H](NC(=O)[C@H]1CCCCN1C)C(C)C [Compound 28] | 300 nM
CO[C@H](CC(=O)N1CCC[C@H]1C(=O)Nc1nccs1)[C@H](C(C)C)N(C)C(=O)[C@@H](NC(=O)[C@H]1CCCN1C)C(C)C [Compound 24] | 90 nM
COC(=O)CC(=O)[C@@H]1CCCN1C(=O)C[C@@H](OC)[C@H](C(C)C)N(C)C(=O)[C@@H](NC(=O)[C@H](C(C)C)N(C)C)C(C)C [Compound 36] | 30 nM
CO[C@H](CC(=O)N1CCC[C@H]1C(=O)NCCc1ccccn1)[C@H](C(C)C)N(C)C(=O)[C@@H](NC(=O)[C@H]1CCCN1C)C(C)C [Compound 26] | 600 nM
CO[C@H](CC(=O)N1CCC[C@H]1C(=O)N[C@@H](C)C(=O)Nc1nccs1)[C@H](C(C)C)N(C)C(=O)[C@@H](NC(=O)[C@H](C(C)C)N(C)C)C(C)C [Compound 43] | 40 nM
CO[C@H](CC(=O)N[C@@H](Cc1ccccc1)C(=O)Nc1nccs1)[C@H](C(C)C)N(C)C(=O)[C@@H](NC(=O)[C@H](C(C)C)N(C)C)C(C)C [Compound 41] | 300 nM
COC(=O)[C@@H]1CCCN1C(=O)C[C@@H](OC)[C@H](C(C)C)N(C)C(=O)[C@@H](NC(=O)[C@H]1CCCN1C)C(C)C [Compound 33] | 100 nM
CO[C@H](CC(=O)N1CCC[C@H]1C(=O)Nc1ccncc1)[C@H](C(C)C)N(C)C(=O)[C@@H](NC(=O)[C@H]1CCCN1C)C(C)C [Compound 34] | 300 nM
CO[C@H](CC(=O)N1CCC[C@H]1C(=O)N[C@@H](Cc1ccccc1)C(=O)Nc1nccs1)[C@H](C(C)C)N(C)C(=O)[C@@H](NC(=O)[C@H](C(C)C)N(C)C)C(C)C [Compound 42] | 9 nM
CO[C@H](CC(=O)N1CCC[C@H]1C(=O)Nc1nccs1)[C@H](C(C)C)N(C)C(=O)[C@@H](NC(=O)[C@H]1CCCCN1C)C(C)C [Compound 25] | 100 nM
CCC(C(=O)N[C@H](C(=O)N(C)[C@@H](C(C)C)[C@@H](CC(=O)N1CCC[C@H]1C(=O)NCCc1ccccn1)OC)C(C)C)(c1ccccc1)N(C)C (stereo partly drawn) [Compound 27] | 200 nM
CCC(C(=O)N[C@H](C(=O)N(C)[C@@H](C(C)C)[C@@H](CC(=O)N1CCC[C@H]1C(=O)Nc1nccs1)OC)C(C)C)(c1ccccc1)N(C)C (stereo partly drawn) [Compound 32] | 100 nM
CO[C@H](CC(=O)N1CCC[C@H]1C(=O)Nc1ccncc1)[C@H](C(C)C)N(C)C(=O)[C@@H](NC(=O)[C@H]1CCCCN1C)C(C)C [Compound 35] | 300 nM
CCC(C(=O)N[C@H](C(=O)N(C)[C@@H](C(C)C)[C@@H](CC(=O)N1CCC[C@H]1C(=O)Nc1ccncc1)OC)C(C)C)(c1ccccc1)N(C)C (stereo partly drawn) [Compound 31] | 30 nM
